We go through three molecules from paper PMC9019100, “Development of NanoLuc-targeting protein degraders and a universal reporter system to benchmark tag-targeted degradation platforms” (Nature Communications, 2022).

For this assay, the target named is Halo-EGFP-NanoLuc-FKBP^F36V (H-E-N-F) fusion protein (UniProt P0A3G2+P62942+Q9GV45, A155T/A167V/A172T/A224E/A31E/A60N/A81I/C128F/C176G/D78G/E160K/E257K/F37V/F95D/H272N/I117V/K175M/K195N/K70R/L47V/L54V/L88M/L99Q/M102K/N193R/N227D/P142E/P291S/Q151K/Q38R/Q45L/S2A/S58T/T264A/V71I/Y165I/Y273L/Y87F). The format is cell-based.
Halo-EGFP-NanoLuc-FKBP^F36V (H-E-N-F) fusion protein, sequence (Q9GV45 other isoform, or with tags, fused parts or gaps with the stated changes): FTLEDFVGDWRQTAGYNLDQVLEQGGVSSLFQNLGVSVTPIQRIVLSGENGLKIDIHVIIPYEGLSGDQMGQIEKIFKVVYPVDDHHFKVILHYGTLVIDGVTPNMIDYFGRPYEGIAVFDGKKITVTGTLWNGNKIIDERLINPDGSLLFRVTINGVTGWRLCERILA
Halo-EGFP-NanoLuc-FKBP^F36V (H-E-N-F) fusion protein, sequence (P0A3G2 other isoform, or with tags, fused parts or gaps with the stated changes): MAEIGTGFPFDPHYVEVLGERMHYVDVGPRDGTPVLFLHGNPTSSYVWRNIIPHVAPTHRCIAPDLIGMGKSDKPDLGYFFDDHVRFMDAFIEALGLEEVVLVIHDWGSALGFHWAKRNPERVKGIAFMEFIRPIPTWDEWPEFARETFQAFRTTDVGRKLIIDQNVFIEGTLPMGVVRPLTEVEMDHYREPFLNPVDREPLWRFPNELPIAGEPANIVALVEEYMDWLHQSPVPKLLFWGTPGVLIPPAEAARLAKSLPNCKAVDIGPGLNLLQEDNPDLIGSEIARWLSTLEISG
Halo-EGFP-NanoLuc-FKBP^F36V (H-E-N-F) fusion protein, sequence (P62942 whole entry F37V, the tested form may be a part): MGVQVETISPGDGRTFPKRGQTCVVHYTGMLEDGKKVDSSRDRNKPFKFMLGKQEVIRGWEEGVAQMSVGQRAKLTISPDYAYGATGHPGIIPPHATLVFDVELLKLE

Where two headings read alike, the source gives them in different places.

`CCc1cccc(N(CC)C(=O)Cn2c(C(=O)NC3CCC(C(=O)NCCCCCCCC(=O)NCCCCCCC(=O)N[C@H](C(=O)N4C[C@H](O)C[C@H]4C(=O)NCc4ccc(-c5scnc5C)cc4)C(C)(C)C)CC3)cc3ccccc32)c1` (stereo partly drawn) [NV2]: for the setting “tested concentrations up to 16 μM, 5 h”, the “degradation of the H-E-N-F fusion protein by Western blot” value (“degradation” below) is “unable to trigger degradation”.
As for `CC[C@H](C(=O)N1CCCC[C@H]1C(=O)O[C@H](CCc1ccc(OC)c(OC)c1)c1ccccc1OCC(=O)NCCCCCCOc1cccc2c1C(=O)N(C1CCC(=O)NC1=O)C2=O)c1cc(OC)c(OC)c(OC)c1` (stereo partly drawn) [FC1], under “100 nM, 5 h”, the “degradation” value is given as “almost completely degraded”.
As to `CC[C@H](C(=O)N1CCCC[C@H]1C(=O)O[C@H](CCc1ccc(OC)c(OC)c1)c1ccccc1OCC(=O)NCCCCCCC(=O)N[C@H](C(=O)N1C[C@H](O)C[C@H]1C(=O)N[C@@H](C)c1ccc(-c2scnc2C)cc1)C(C)(C)C)c1cc(OC)c(OC)c(OC)c1` [FV1], the “degradation” value is on record as “complete degradation”.
